The values that follow come from the supplement of paper PMC11417369.

± gives the standard deviation of the averaged measurements. This is one part of the list.

This experiment has as its system PfAP2-I AP2 domain 3 (GST-tagged). In words: gcPBM binding intensity (ln(normalized median fluorescence intensity)); higher = stronger DNA binding. In a few lines: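 GST-tagged P. falciparum DNA-binding domains, expressed in E. coli (about 25 μg on average), were applied for 1 h to an Agilent 4 × 180k array of primer-extended double-stranded 36-bp intergenic genomic probes plus negative controls. The binding buffer was 1× PBS with 1% milk, 0.2 mg/ml BSA, 0.5% salmon testes DNA and 0.03% Triton X-100. Bound protein was detected with Alexa488 anti-GST antibody and scanned at 488 nm. Binding intensity is the highest Masliner-normalised natural-log median intensity across replicate spots of either probe orientation.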
Turning to “GAACAATAAATAAAAAAAATAAAAATAAAAATAAAA [TGCATGCA_negctrl_site35]”, the “gcPBM binding intensity (ln)” value was found to be 7.75 ± 0.8.

Consider “ATAAGTAAATTAGATACACACATGATATCATACATA [CACACA_site1623]”, for which the “gcPBM binding intensity (ln)” value came to 7.67 ± 0.55.

“TTTTTTTTTTAATTAACACACATAAATATATATATA [CACACA_site3275]”: the “gcPBM binding intensity (ln)” value was 8.85 ± 0.13.

For “TATATATATATTAATAGTACATATTATGTAAGCCTA [XGTACX_site2826]”, the “gcPBM binding intensity (ln)” value was 8.845 ± 0.064.

In the case of “TTTTTTTTTTTTTTTGTGCACAATATAATTTTTAAT [GTGCAC_site9747]”, the “gcPBM binding intensity (ln)” value was found to be 10.9 ± 0.52.

As to “ATAAAACAAATGAGTACACACACATAAAAATTGAAA [CACACA_site7949]”, the “gcPBM binding intensity (ln)” value turned out to be 8.08 ± 0.042.

As for “AAAAAATACATACATACACACATATATATATATATA [CACACA_site913]”, the “gcPBM binding intensity (ln)” value stood at 9.57 ± 0.2.

Regarding “TCCTCTTATAATTCGTGTCCACATATATCATACAAT [XGTACX_site1523]”, the “gcPBM binding intensity (ln)” value is 8.22 ± 0.33.

With “TACGGATATATATATTGTACATATATATAATATATA [XGTACX_site3156]”, the “gcPBM binding intensity (ln)” value stood at 7.71 ± 0.33.

For “TTATTCATAAAAACAAAAAACAAAAATGAAATAGGA [CACACA_negctrl_site1123]”, the “gcPBM binding intensity (ln)” value came to 7.83 ± 0.57.

Regarding “TATGATATAATATACACACATACATATATATATATA [CACACA_site510]”, the “gcPBM binding intensity (ln)” value is 9.13 ± 0.52.

In the case of “TTAATATTTTATTTCACACACATAAATGCCCCAAAC [CACACA_site1887]”, the “gcPBM binding intensity (ln)” value was 9.45 ± 0.15.

Consider “AGAGTTCTCCTATGCACACAAAAAACTTTCATTTAT [CACACA_site4193]”, for which the “gcPBM binding intensity (ln)” value stood at 8.62 ± 0.43.

As to “TATTATGTCTAAAATAACATATTAATATATTATTTC [CACACA_negctrl_site285]”, the “gcPBM binding intensity (ln)” value was determined as 7.46 ± 0.49.

Take “CATCATATAAATTCAAGTACAAGAAAAAGTAATATA [XGTACX_site2383]”: the “gcPBM binding intensity (ln)” value was determined as 7.68 ± 0.49.

As to “AAATAATTTTTATTTGTACACACATACATATATATT [CACACA_site8240]”, the “gcPBM binding intensity (ln)” value was found to be 7.79 ± 0.53.

Take “TAAATAAAGATATATACACACATATTTATATTTATA [CACACA_site6431]”: the “gcPBM binding intensity (ln)” value came out at 7.31 ± 0.54.

Consider “ATATCTACTTTTTTATGTACGAAAAAAATACGGATT [XGTACX_site8937]”, for which the “gcPBM binding intensity (ln)” value turned out to be 7.92 ± 0.46.

For “ACAAAATTGAAATTCACACAAAAACTATACTTTTTA [CACACA_site4638]”, the “gcPBM binding intensity (ln)” value came to 7.37 ± 0.52.

Take “TTTAAGCAAAGACACACACACATATTTATATTTATA [CACACA_site6295]”: the “gcPBM binding intensity (ln)” value stood at 7.69 ± 0.49.

In the case of “AAACATTTATACAAAGCACACAATTTTTAACTTTTA [CACACA_site2627]”, the “gcPBM binding intensity (ln)” value amounted to 8.22 ± 0.3.

“AATAAAAAAAAAAAAAAAAAAAAAAACCTGAGGAGT [CACACA_negctrl_site1140]”: the “gcPBM binding intensity (ln)” value amounted to 7.59 ± 0.71.

For “AACCTTTTAAGAGTTGCACACGTACAAAAAAAAAAA [CACACA_site9159]”, the “gcPBM binding intensity (ln)” value was 8.61 ± 0.47.

In the case of “TATATTAAACAATATACACACATTAATGTAGACATA [CACACA_site8889]”, the “gcPBM binding intensity (ln)” value was 7.7 ± 0.46.

For the sequence “TTATAATATATATCTGCATGTTGCTTTGGGGCTTTA [TGCATGCA_site712]”, the “gcPBM binding intensity (ln)” value came out at 7.84 ± 0.77.

As for “GAAAATTCTTAAGGCACACACATATAAGATATATAC [CACACA_site6410]”, the “gcPBM binding intensity (ln)” value came out at 9.88 ± 0.22.

For the sequence “TTTCAGACAAAAAAAAAAAAAAAAAAGAGGAGAATA [CACACA_negctrl_site254]”, the “gcPBM binding intensity (ln)” value came to 7.47 ± 0.29.

In the case of “CCACTTGTGTAATGTTGTACAAAAATAAATATATTT [XGTACX_site4598]”, the “gcPBM binding intensity (ln)” value turned out to be 7.84 ± 0.52.

Regarding “CTATGAACACACACATGTACATATATTAACTCGCTA [XGTACX_site8805]”, the “gcPBM binding intensity (ln)” value turned out to be 7.93 ± 0.43.

As for “ATAATTAAAAATAATATATATATAATATGATATTAT [GTGCAC_negctrl_site194]”, the “gcPBM binding intensity (ln)” value turned out to be 7.33 ± 0.46.

Consider “TACACATACAGACATACACACATACACATATACACA [CACACA_site6918]”, for which the “gcPBM binding intensity (ln)” value worked out at 8.04 ± 0.18.

Regarding “AAAAAAAAAAAAAACACACACACACGCACATATACA [CACACA_site7288]”, the “gcPBM binding intensity (ln)” value was found to be 8.48 ± 0.57.

For the sequence “TTTTTTCTTTTTTTTTTTAATTATAAACATGATATT [GTGCAC_negctrl_site144]”, the “gcPBM binding intensity (ln)” value was 7.46 ± 0.36.

As for “TAAATATATATAACATGTACATAAAATATATATATA [XGTACX_site4431]”, the “gcPBM binding intensity (ln)” value was 8.85 ± 0.27.

Regarding “TATCTTCATTGTTGACGTACAGTATTTCTAAACGTT [XGTACX_site3439]”, the “gcPBM binding intensity (ln)” value was 8.11 ± 0.29.

“TACATATTTTATAGCACACAAATAATAATATGTAGT [CACACA_site688]”: the “gcPBM binding intensity (ln)” value worked out at 8.775 ± 0.021.

In the case of “TTTTTGTTAAAATAAATATTATAAATATATTAATAT [TGCATGCA_negctrl_site239]”, the “gcPBM binding intensity (ln)” value turned out to be 7.28 ± 0.18.

Regarding “AAAAAAAAAAAAATGTGGACACAATTGTGTGTTTGT [XGTACX_site3563]”, the “gcPBM binding intensity (ln)” value is 7.97 ± 0.61.

With “GTTGTGGAAAGAAGTTGTACATAAAATATTATATAA [XGTACX_site4352]”, the “gcPBM binding intensity (ln)” value was determined as 7.92 ± 0.49.

As to “AGGCCTTTTAGTATTTCACACACGTAAATGCGTATA [CACACA_site1108]”, the “gcPBM binding intensity (ln)” value amounted to 9.04 ± 0.79.

Take “CATAAAAATGAACATACACACATATATATATATATA [CACACA_site2498]”: the “gcPBM binding intensity (ln)” value turned out to be 9.33 ± 0.51.

As to “TTGCTTTCTTTTTTTTGTACTCATATCTACTATCAT [XGTACX_site7711]”, the “gcPBM binding intensity (ln)” value came to 8.17 ± 0.78.

For “CGAGCAAGACGGGGTGCACACAAACTAATATGCCGA [CACACA_site7936]”, the “gcPBM binding intensity (ln)” value is 10.7 ± 0.59.

As for “TACCTTTATTAATAAAGTACATTAATCTGTGTATAC [XGTACX_site8720]”, the “gcPBM binding intensity (ln)” value came to 7.71 ± 0.44.
